# Source: the supplement of paper PMC4166925
# ± gives the standard deviation of the averaged measurements. Over roughly 33,000 sequences, “E-score (dimensionless, -0.5 to 0.5)” has its median near -0.046; the highest 2% begin near 0.36. The list shows a part of the results.
# Tested on: T1, SpTbr T-box DNA-binding domain (GST fusion)
# T1 sequence: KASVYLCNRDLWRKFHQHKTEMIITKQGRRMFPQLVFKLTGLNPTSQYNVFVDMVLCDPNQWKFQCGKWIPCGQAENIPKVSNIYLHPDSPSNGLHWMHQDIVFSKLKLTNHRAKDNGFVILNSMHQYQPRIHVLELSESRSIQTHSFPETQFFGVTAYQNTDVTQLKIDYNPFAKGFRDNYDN
# Assay: PBM E-score of 8-mer (E-score (dimensionless, -0.5 to 0.5)); Tbr is Tbrain of the sea star Patiria miniata (Pm) or the sea urchin Strongylocentrotus purpuratus (Sp); higher = stronger binding preference; most listed sequences are background and not binding sites
# Conditions: the construct has about 5 more residues each side
# Outline: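 Each ungapped 8-mer received an enrichment E-score from the Universal PBM Analysis Suite, averaged over duplicate arrays. The proteins were Tbr T-box DNA-binding domains, covering the whole T-box plus about five flanking residues, fused to GST and expressed in BL21 E. coli at 20 °C before glutathione affinity purification. Universal Agilent oligonucleotide arrays were made double-stranded by primer extension and incubated with 200 nM protein in PBS (pH 7.5). The arrays were then scanned and quantified, and every 8-mer was scored from probe intensities.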
row,Sequence,PBM E-score of 8-mer
1,CCAAGGAA,-0.0592 ± 0.03
2,CCCGTCGA,-0.0711 ± 0.015
3,GATAAAAA,0.0565 ± 0.075
4,AAAGTGTC,0.39331 ± 0.00039
5,ACTATGGA,-0.251 ± 0.0092
6,ATATACTG,-0.241 ± 0.11
7,ATTTTTTC,-0.138 ± 0.032
8,AGGCAAGC,-0.0153 ± 0.022
9,CCAAGTAG,0.0306 ± 0.035
10,CCTGGTCG,-0.0356 ± 0.014
11,CGAGATTC,0.0466 ± 0.066
12,CATGATAC,-0.244 ± 0.02
13,CTGGCTGC,-0.103 ± 0.0078
14,CGTCCCTA,-0.0382 ± 0.032
15,CGAATGAA,-0.0859 ± 0.013
16,CTTTTGCC,-0.0897 ± 0.07
17,GGACAGCA,-0.127 ± 0.014
18,GAGACCCC,-0.0869 ± 0.047
19,ATTTCCTG,-0.0621 ± 0.052
20,CGGAAGGA,-0.246 ± 0.007
21,ACTGATAC,0.189 ± 0.025
22,ATTGACAC,0.418 ± 0.0052

row,Sequence,PBM E-score of 8-mer
1,AAATCTGC,-0.0436 ± 0.0086
2,GCTCGCCC,-0.196 ± 0.039
3,ATGGTTCA,-0.0498 ± 0.015
4,CTAGCATA,-0.027 ± 0.031
5,GATAACTA,-0.00475 ± 0.0059
6,AACCCGTA,-0.256 ± 0.051
7,CTGAGCGC,-0.0282 ± 0.0093
8,AAGGAGTC,-0.0918 ± 0.048
9,CTTGATCC,-0.106 ± 0.03
10,AAATGGTA,-0.152 ± 0.041
11,AAAATGCC,-0.216 ± 0.0041
12,CCTTAGAA,-0.242 ± 0.019
13,GTTCACAA,0.376 ± 0.02
14,GCTGAGAC,0.0168 ± 0.031
15,CGAGCTAA,0.218 ± 0.021
16,GCTAATGA,-0.00374 ± 0.023
17,AGGCCTAT,-0.196 ± 0.034
18,GATGCAAA,0.0247 ± 0.033
19,GATGCCGA,-0.111 ± 0.07
20,GGCGTGAC,0.388 ± 0.0071
21,GCTGGAGA,-0.152 ± 0.05
22,AACATCCT,-0.1423 ± 0.00042

row,Sequence,PBM E-score of 8-mer
1,AGACGGCT,0.0187 ± 0.012
2,GCCGGGTA,0.0891 ± 0.031
3,ACACTTGC,0.4 ± 0.0054
4,GTATAACA,-0.00134 ± 0.0064
5,CGTCCGGC,-0.18 ± 0.034
6,AAACCGGT,-0.0267 ± 0.078
7,CCGGTTCA,-0.0987 ± 0.024
8,GCGGTCCA,-0.0531 ± 0.045
9,GAGGTCAA,-0.265 ± 0.03
10,GAAGAGGC,0.029 ± 0.065
11,ATCCAACC,-0.0425 ± 0.035
12,AGCGTAGG,-0.137 ± 0.037
13,CATCTAGA,-0.25 ± 0.037
14,TGTTAACA,0.421 ± 0.029
15,ACTTTTAG,4e-05 ± 0.067
16,GCTAGGAC,-0.185 ± 0.037
17,TCCCTCAA,-0.147 ± 0.077
18,ACGTGTCG,0.362 ± 0.015
19,GATTCGGA,-0.209 ± 0.0076
20,ATGGTCGC,0.0349 ± 0.097
21,CATTGGCC,-0.025 ± 0.091
22,GGATATAA,-0.132 ± 0.0093

row,Sequence,PBM E-score of 8-mer
1,CCTACCCA,-0.25 ± 0.06
2,ATACTCAG,-0.177 ± 0.028
3,CCATGATA,-0.186 ± 0.057
4,AGAGACCT,-0.284 ± 0.014
5,ACATAAGC,-0.0263 ± 0.065
6,GTGCACCA,-0.0665 ± 0.037
7,GCCTCGGA,-0.0495 ± 0.017
8,ACACACAT,0.328 ± 0.0053
9,GACTCTCA,0.0161 ± 0.056
10,CAGTTGAG,0.0875 ± 0.061
11,GCTGCGAA,0.313 ± 0.032
12,CGACACAA,0.185 ± 0.03
13,ACACAGCC,-0.0863 ± 0.057
14,GGTTCTTA,-0.083 ± 0.11
15,AGATCACT,0.0864 ± 0.014
16,GGCCGGGA,-0.228 ± 0.004
17,CAGATAGC,0.0549 ± 0.054
18,TACGTCTA,-0.334 ± 0.016
19,AGGTCGTC,0.0482 ± 0.017
20,AATCACAT,0.106 ± 0.032
21,AAGTACTT,-0.112 ± 0.098
22,AAGCGTGG,0.179 ± 0.047

row,Sequence,PBM E-score of 8-mer
1,AGAACGCT,0.0167 ± 0.0058
2,GACACGGA,0.0274 ± 0.051
3,CCAATACG,-0.132 ± 0.02
4,AAGAAATT,-0.0939 ± 0.072
5,GACCTACA,-0.0944 ± 0.046
6,TTCCAGAA,-0.225 ± 0.051
7,CTTACCCA,0.027 ± 0.0023
8,CTGCAATA,-0.116 ± 0.018
9,GAGATACA,-0.0218 ± 0.03
10,AGGATCAG,-0.289 ± 0.059
11,ACTTCAGC,-0.0821 ± 0.024
12,GGATTACC,-0.14 ± 0.011
13,TGTGACAA,0.412 ± 0.0055
14,GATAGGAA,-0.267 ± 0.017
15,GTTTCCTA,-0.192 ± 0.052
16,ACAGCAAC,0.0392 ± 0.021
17,ATCCTAAG,-0.0679 ± 0.047
18,AAAACGGA,0.0046 ± 0.028
19,CGTATCAC,0.112 ± 0.044
20,CATTGTAC,-0.253 ± 0.028
21,GATACAAA,-0.167 ± 0.023
22,AAAGACGT,-0.124 ± 0.053
